According to the supplement of paper PMC11417369:
± gives the standard deviation of the averaged measurements. The list shows a part of the results.

tested on: PfAP2-I AP2 domain 3 (GST-tagged); assay: gcPBM binding intensity (ln(normalized median fluorescence intensity)); higher = stronger DNA binding
Procedure, shortened: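 GST-tagged P. falciparum DNA-binding domains, expressed in E. coli (about 25 μg on average), were applied for 1 h to an Agilent 4 × 180k array of primer-extended double-stranded 36-bp intergenic genomic probes plus negative controls. The binding buffer was 1× PBS with 1% milk, 0.2 mg/ml BSA, 0.5% salmon testes DNA and 0.03% Triton X-100. Bound protein was detected with Alexa488 anti-GST antibody and scanned at 488 nm. Binding intensity is the highest Masliner-normalised natural-log median intensity across replicate spots of either probe orientation.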

Sequence | gcPBM binding intensity (ln)
ATAATCCAACTTTGAGTGCGTGGTGTTTTTTTTTTC | 8.07 ± 0.81
TATAATACAACATGCACACATATATATGTGAATCTC [CACACA_site2490] | 8.54 ± 0.39
TTTAAAAATAAAAGTACACACATAAACATATTACAC [CACACA_site1428] | 8.46 ± 0.18
ATAAAATAAACATAAATAAACATAAATAAACAAAAA [CACACA_negctrl_site1270] | 7.59 ± 0.67
AGGTATATATACATATGTACGTATATATATATATAT [XGTACX_site5115] | 8.77 ± 0.44
TTTCTAATTTATATCACACACATATTTATATAGTAA [CACACA_site6813] | 7.72 ± 0.54
GGCGTATGTGTATATACACACCCACGTATATAAATA [CACACA_site7489] | 8.09 ± 0.49
TTATATAAATTATTTACACACAAACATTTATACTTT [CACACA_site3449] | 7.84 ± 0.55
TATTCCCTTCTTCCTTCTGTTTTTGATATTAAAGGG [GTGCAC_negctrl_site270] | 7.78 ± 0.43
ATACTTTATTCGTTAGCACACAATTCAAGTTGATTC [CACACA_site1123] | 8.29 ± 0.52
AAGATACCCCAAAATTGTACATATTAAAATAATAAA [XGTACX_site3603] | 7.87 ± 0.66
TTGTAAAACTTATAATGTACATTTTTTTTTTTTTTT [XGTACX_site5398] | 8.3 ± 0.49
AGGGACATCTATATCACACACAAAAATTAGTCCCTT [CACACA_site7330] | 7.65 ± 0.57
TTTTTTTTTTTTTGCACACACATTGAATTATTATTC [CACACA_site197] | 9.45 ± 0.29
TATATAGAGAGATATGCACACTGTATGAATGCCCCC [CACACA_site5476] | 9.83 ± 0.028
TATACCTATATACATACATGCAAATATATATTCATA [TGCATGCA_site269] | 8.13 ± 0.26
ATAAGAAAATATAAAATGCACACTATAAATTGTATA [CACACA_site143] | 8.68 ± 0.2
ATATGTCACTTGTATACACACATATATATTTCAATC [CACACA_site3256] | 8.07 ± 0.42
CTGAAAAAAAAGCTTGCACACGTATTTGCTTTATGT [CACACA_site8427] | 8.1 ± 0.52
TTACTTATAAATAAATATACAAAAATGTTATATATA [XGTACX_negctrl_site223] | 7.29 ± 0.4
TTTTTTTTTTTTGAAGTGCATTACTTTTTTTGTATT [GTGCAC_site9811] | 11 ± 0.44
TTTTTTGTGTTTGGTACACACGTTATAAAAAATAAA [CACACA_site4866] | 7.93 ± 0.35

Sequence | gcPBM binding intensity (ln)
GAAAATAGCTAAAATACACACAATTAAAAATTATTA [CACACA_site3506] | 7.3 ± 0.44
AGGAATATAAAGTGCACACATAATTTGGGGGCAAAA [CACACA_site258] | 10.6 ± 0.44
TTGTTTCTACAATTTAATAAAATACGTTTTCAAAAA [XGTACX_negctrl_site377] | 7.38 ± 0.5
TACTCCTTAAATATATGTAAAGGAAGAAAAAAAAAA [XGTACX_negctrl_site306] | 7.86 ± 0.75
ACAATAAAAATAAAAAGTACAAATAAAAAAAATAAA [XGTACX_site6718] | 7.91 ± 0.26
AATATATGTTTAATTTCACACACAAATATACATTTT [CACACA_site9385] | 7.69 ± 0.65
ATATATATATATATATGTACACATATACGCTTTTTC [XGTACX_site3838] | 9.59 ± 0.63
TTTGAGATAAAAGACTGTACTTAGAATGTATAAAAA [XGTACX_site203] | 7.98 ± 0.52
TTTAATTTTATATAGAGTACAAAAAAATAGAAAGAT [XGTACX_site3870] | 8.34 ± 0.36
ATATATATATATATATGTACATAAATATTTTAAAAT [XGTACX_site4980] | 9.55 ± 0.61
AAAAAAAAAAAAAACTGTACCAAAAAGAATATATAC [XGTACX_site8345] | 7.97 ± 0.45
ATCCTCTTTACAATATGTACATAAATATATATTTAT [XGTACX_site8001] | 8.47 ± 0.43
TATATATATAAATACACACACATATATATATATATA [CACACA_site4867] | 9.37 ± 0.81
TATTTATTTATTTATTTATTTATTTATTTATATTTA [CACACA_negctrl_site398] | 8.05 ± 0.54
TATATATTTTTATTATGTACATATTAACAATGTGTT [XGTACX_site879] | 7.83 ± 0.33
TAAAATATAAAACACACACACATATATATATATATT [CACACA_site224] | 7.8 ± 0.4
AAGTAAAATAAGTATACACACATAAATATATATATA [CACACA_site685] | 8.94 ± 0.2
TATAATAATACGTATTGTACTATTAGGTTAATTCGT [XGTACX_site264] | 7.62 ± 0.5
ACTTGTAAGAAACACACACACACACCCATATATATA [CACACA_site796] | 8.3 ± 0.79
TCTATAAAGGAATATACACACATATATATATATATA [CACACA_site410] | 9.36 ± 0.29
TTTTCTTGTAAATTACGTACGAATGTGTAGAGAAAT [XGTACX_site1339] | 8.36 ± 0.58
TTATTAAATATGTACACACGTACATTTTATAAATGA [CACACA_site2387] | 7.58 ± 0.4
